PMC7819943, “Rice protein-binding microarrays: a tool to detect cis-acting elements near promoter regions in rice”
Some of the results follow.

What follows are sequences tested against T1, OsWOX13 (Oryza sativa, UniProt Q5QMM3 1-267) (assay: protein-binding microarray (RPBM); PBS, 2% BSA, 51.3 ng/ul salmon testes DNA, 50 uM zinc acetate, 200 nM TF, 25 C, 1 h; high values mean tight binding). Conditions: protein: recombinant; tags: N-terminal polyhistidine and DsRed monomer fusion (pET32a); label: CyDye5-dUTP incorporated in the synthesized complementary strand; 3' TTTTT single-stranded linker to array surface; dsDNA, one strand shown.
T1 sequence: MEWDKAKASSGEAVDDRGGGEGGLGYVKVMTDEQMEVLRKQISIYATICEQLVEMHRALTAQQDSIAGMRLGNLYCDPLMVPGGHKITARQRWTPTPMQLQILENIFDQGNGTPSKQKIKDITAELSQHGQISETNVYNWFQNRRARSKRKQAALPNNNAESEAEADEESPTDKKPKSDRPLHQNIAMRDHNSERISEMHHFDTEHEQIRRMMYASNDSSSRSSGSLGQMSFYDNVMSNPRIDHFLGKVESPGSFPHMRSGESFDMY
Method in brief: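 A custom Agilent array was converted to double-stranded form by primer extension with Cy5-dUTP and blocked with 2% BSA. Protein at 200 nM in PBS with 2% BSA, salmon testes DNA and 50 µM zinc acetate was applied for 1 h at 25 °C, followed by washing. The proteins were polyhistidine–DsRed N-terminal fusions of transcription factors, expressed in E. coli BL21-CodonPlus and Ni–NTA-purified. The binding signal is per-feature fluorescence intensity (arbitrary units) from an Axon 4000B scanner.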

Sequence	binding signal
AAAGAGTTATTGATAGCATGATACATATACAGATATAGATCGGAGTCACCTAGTGCAG	5040 fluorescence intensity (a.u.)
AAGAATTTGAAAATTAGTACAAAATTTGCAATACGGAAATCGGAGTCACCTAGTGCAG	7120 fluorescence intensity (a.u.)
TCATAATTTGAATTCTTCTGCGCAAATTTGTTGCCGCACTCGGAGTCACCTAGTGCAG	14900 fluorescence intensity (a.u.)
AAAGACTAATCTGAGGCCCCAATCACCACTTCATCAGCACCGGAGTCACCTAGTGCAG	4570 fluorescence intensity (a.u.)
TTTCCTGATTGCCTTTGAAAATTATTTTATCTTGTGCATACGGAGTCACCTAGTGCAG	37200 fluorescence intensity (a.u.)
TCTGATTTATATGGCTGAATCACGATACGGGATATCTCGACGGAGTCACCTAGTGCAG	30300 fluorescence intensity (a.u.)
TGTTGATAGACAGCACATTATATTGCACACACATACTACACGGAGTCACCTAGTGCAG	24300 fluorescence intensity (a.u.)
TGTCAGATTGGATGGATTGTGCTACTGTACATGCATAGTGCGGAGTCACCTAGTGCAG	37000 fluorescence intensity (a.u.)
TTAGCACATGATTAATTGAGTATTAATTATTTTAAACTTCCGGAGTCACCTAGTGCAG	22800 fluorescence intensity (a.u.)
CATCAATTCTAGATTTGATAAAAGGTCCCATTTTACCCAACGGAGTCACCTAGTGCAG	3730 fluorescence intensity (a.u.)
CAAATAAATATACATGATTTTACTGAATTTTCAGCAATATCGGAGTCACCTAGTGCAG	4720 fluorescence intensity (a.u.)
AATTGATAGGAAACAAATAAAGTAAAATTAATATGATGTACGGAGTCACCTAGTGCAG	8380 fluorescence intensity (a.u.)
CAAAATTTTGAGTGATCTTAGATCTGTTGATTCTTCTTATCGGAGTCACCTAGTGCAG	10300 fluorescence intensity (a.u.)
AATAATTAATTACTCGCAGCAAAGGACGGACAGTTTCCTGCGGAGTCACCTAGTGCAG	42600 fluorescence intensity (a.u.)
TTTAATTACTCAACTGTTTTACCGCTTTGCTCAATAAAATCGGAGTCACCTAGTGCAG	8820 fluorescence intensity (a.u.)
TCTGTCTGATTTGTAATCTTTTCCCTTGGCTTTGAGCGTGCGGAGTCACCTAGTGCAG	29400 fluorescence intensity (a.u.)
CTTGATTTACTTCTAATCATTTAGATCACATTGTTGAGAACGGAGTCACCTAGTGCAG	38500 fluorescence intensity (a.u.)
AGATGGCAAAATAGTTAATTATCTCCCACTGAACTTGTGTCGGAGTCACCTAGTGCAG	3620 fluorescence intensity (a.u.)
CTTATCAATTTATGATAGATAGAAAGTTACAAGCCAATATCGGAGTCACCTAGTGCAG	14800 fluorescence intensity (a.u.)
ACAAATTTGTTCAAATTTTGTTAGGATTTGTAGTGAAACTCGGAGTCACCTAGTGCAG	7120 fluorescence intensity (a.u.)
CCCAAATTCCCTCTCCTCTGATTGGCCCATCCGCCCCTCCCGGAGTCACCTAGTGCAG	22900 fluorescence intensity (a.u.)

Sequence	binding signal
CTACAACATGATTAGCTAGATATATAGGCATGTAGAACGCCGGAGTCACCTAGTGCAG	23900 fluorescence intensity (a.u.)
CAGCCCAATAATTATGGGCCGTTGTTTGGGCTTTGGGCCGCGGAGTCACCTAGTGCAG	4490 fluorescence intensity (a.u.)
GAAAATTATGTACATCCTCCGCTTAAAGATGACTATGAATCGGAGTCACCTAGTGCAG	4540 fluorescence intensity (a.u.)
AATCAAATTGCCACTTAAATCTATTGCCTCAAGTGAACAGCGGAGTCACCTAGTGCAG	16100 fluorescence intensity (a.u.)
CTTAGATGATTAATCTATGGTCCAAAGTATCTCACTGCCTCGGAGTCACCTAGTGCAG	30900 fluorescence intensity (a.u.)
GATAAATTTGGTAAACTTAATCCAACAACGAATAGTGGGCCGGAGTCACCTAGTGCAG	17800 fluorescence intensity (a.u.)
ATAGTTAATGGACCCGCGATATTTGGTTTTGCGGTTCGAGCGGAGTCACCTAGTGCAG	3790 fluorescence intensity (a.u.)
CTCTCGCTCGCCATGATTGATCGAGCTCCACCTGCCAATTCGGAGTCACCTAGTGCAG	12900 fluorescence intensity (a.u.)
TGTTTAATCAAGGGCTGATGACCCCAACTCTCATAGATATCGGAGTCACCTAGTGCAG	3320 fluorescence intensity (a.u.)
ATAATTTAATTATATATTTTCTTAAGAATACTAAATTATGCGGAGTCACCTAGTGCAG	34900 fluorescence intensity (a.u.)
CCATAAAACCTGTGATTATTTGCCACGCTTCATAATACATCGGAGTCACCTAGTGCAG	4400 fluorescence intensity (a.u.)
CAAAATTAACTTTAAAATTATGTTTTAAAATTTTAAAACTCGGAGTCACCTAGTGCAG	8090 fluorescence intensity (a.u.)
AGTTATTGATAGGTCTAATATTTCAACGATGCTCATGTACCGGAGTCACCTAGTGCAG	17800 fluorescence intensity (a.u.)
AATGATGAAAATGGTAAAGTGGTGAAGTGTACTCAGTTCACGGAGTCACCTAGTGCAG	3650 fluorescence intensity (a.u.)
ACTGATGGGCTTGTGCTAAATATCAGCCTCAGCCACAGCACGGAGTCACCTAGTGCAG	4230 fluorescence intensity (a.u.)
ATTTATGTTAAATTTGTGATTTCAGATCACCAATATCCATCGGAGTCACCTAGTGCAG	10900 fluorescence intensity (a.u.)
AGTAATGTCACTAATAAAATTACAGCACACACATATGAAACGGAGTCACCTAGTGCAG	5390 fluorescence intensity (a.u.)
TCTCGTCGGCTCTGATTAGATTTCTTGATGTCGTGTTAGCCGGAGTCACCTAGTGCAG	11000 fluorescence intensity (a.u.)
ACTTGATTTCAGATAGATATCACGAATCTCAACATTTTCACGGAGTCACCTAGTGCAG	11300 fluorescence intensity (a.u.)
AGCTAGTTTGATTAGAAACAGAATTCAGGACAATATATGCCGGAGTCACCTAGTGCAG	17700 fluorescence intensity (a.u.)
CGGTAATTTTCTAATTTGTCTACAAACGTGGTTGCCTACACGGAGTCACCTAGTGCAG	42400 fluorescence intensity (a.u.)

Sequence	binding signal
TATCCTGGTCAATTGGCAAGTTGACGAAATGCCCCATGAGCGGAGTCACCTAGTGCAG	3780 fluorescence intensity (a.u.)
AACCAGATTCACCGTGATTAGTTTCACCCTAGTCTAGTCTCGGAGTCACCTAGTGCAG	10800 fluorescence intensity (a.u.)
CCCTAATTTCCCTTTCCTCGGTTAGTTGAGCGAGTGCTCTCGGAGTCACCTAGTGCAG	12500 fluorescence intensity (a.u.)
TAAGATAAATGGAGGAACAAATTGTTAGGAACCTGATTGGCGGAGTCACCTAGTGCAG	6000 fluorescence intensity (a.u.)
GAGCGATTATAAAATTAATTGCTCCGCGGCTTAAGCCGAGCGGAGTCACCTAGTGCAG	5680 fluorescence intensity (a.u.)
GGTCTCCACCCGCCAGCGTGATTGACTGTCCTTGGGCCCTCGGAGTCACCTAGTGCAG	11500 fluorescence intensity (a.u.)
AATCGTTCTAATTTCAATTAAACTTTTAAATTTTGACGTGCGGAGTCACCTAGTGCAG	9420 fluorescence intensity (a.u.)
TAGATTAATAACAAAATGAATTACAAATTTCGCATGTAAACGGAGTCACCTAGTGCAG	4200 fluorescence intensity (a.u.)
ATGATTATATCCAAAATTGAAATATTTATGATACATAAAACGGAGTCACCTAGTGCAG	7660 fluorescence intensity (a.u.)
GTTGAAATGATTAGCTTCTGTTGTTTTGTAGGGCCAAGAGCGGAGTCACCTAGTGCAG	21100 fluorescence intensity (a.u.)
GACAAATTGGTCCAGGAATGTATCAACAAATGACCGAGCACGGAGTCACCTAGTGCAG	9540 fluorescence intensity (a.u.)
CAAATAAATGGGAAGGAAAATGCTTCCATACACAGTTAGCCGGAGTCACCTAGTGCAG	5550 fluorescence intensity (a.u.)
GAAAACAAACAACTGGTGATGACTGATGACTCAGTTTCCGCGGAGTCACCTAGTGCAG	6060 fluorescence intensity (a.u.)
CACACTTGATTTTGGGCAACTTGACCATGTAAGAAAGAGCCGGAGTCACCTAGTGCAG	3380 fluorescence intensity (a.u.)
CTAATTTGCATGGTTTTAAATAATTTTAGTTTAGAATTTACGGAGTCACCTAGTGCAG	3360 fluorescence intensity (a.u.)
TATATATATATATATATATATATATATTCGACTTCTATATCGGAGTCACCTAGTGCAG	31800 fluorescence intensity (a.u.)
CCACAATTAATTTGAGATTACTGCCGTGAAGAGAGAATTCCGGAGTCACCTAGTGCAG	5450 fluorescence intensity (a.u.)
TTAAATTGCCTCGCCCCACTGACCGCCGCCGCTTGAGCTGCGGAGTCACCTAGTGCAG	23000 fluorescence intensity (a.u.)
GAGCAAGTAATTGATGGTTTTAGGAACAGGAGAATAGGACCGGAGTCACCTAGTGCAG	24600 fluorescence intensity (a.u.)
AATAACGTGGATTCAATTATCCCTAGTTTTAAGGGTATAACGGAGTCACCTAGTGCAG	3530 fluorescence intensity (a.u.)
CATGTGAGAAGATTGATAATTAATCAGATTGCCTTTGGAACGGAGTCACCTAGTGCAG	29900 fluorescence intensity (a.u.)

Sequence	binding signal
AATTAATTAGTATTCCGTTCGCTTTATATTATAATAAGTACGGAGTCACCTAGTGCAG	34900 fluorescence intensity (a.u.)
ATAATCAACTTAGATTAACTAACATATATGATAAATAGGTCGGAGTCACCTAGTGCAG	6880 fluorescence intensity (a.u.)
GTAAATTTAGGGGCAATATGTAGGGGCTTATAGTACTTGCCGGAGTCACCTAGTGCAG	5480 fluorescence intensity (a.u.)
ACAACAAATGAACAATCAAATGTCATGCACAGTAAACTACCGGAGTCACCTAGTGCAG	4990 fluorescence intensity (a.u.)
GGCAATGAGATTGGAGTGAAATATGGTTGCCCAGTAGAGGCGGAGTCACCTAGTGCAG	6380 fluorescence intensity (a.u.)
CTTAAACAGACAATTATAACACGTTTATTTCTTCTGTTGACGGAGTCACCTAGTGCAG	25100 fluorescence intensity (a.u.)
GCCTAATTAATCCGTCATTAGCAAATGTTTATTGTAGCACCGGAGTCACCTAGTGCAG	38200 fluorescence intensity (a.u.)
CAGAGGGCCTAATTAACTATCTGATCCGATCAGCATACGACGGAGTCACCTAGTGCAG	4980 fluorescence intensity (a.u.)
CTTCAGATGATGAACATGTTGATTTTGTTTATCTTCCTTGCGGAGTCACCTAGTGCAG	8250 fluorescence intensity (a.u.)
GACATGATAGAAAAGTTGTGTGTATAAAAGGTTTGATGTGCGGAGTCACCTAGTGCAG	8820 fluorescence intensity (a.u.)
TATATAATTTATTTAATTGGATTTACCAGTTTAAGGGGTTCGGAGTCACCTAGTGCAG	54300 fluorescence intensity (a.u.)
CTAAATTTGCCATAAATGTTACTACCCTTTTACCTAATATCGGAGTCACCTAGTGCAG	8380 fluorescence intensity (a.u.)
ATTATATTACCAATTAAACTATTACACGCTTGAGTTGCAACGGAGTCACCTAGTGCAG	13300 fluorescence intensity (a.u.)
TATTATTGATGTCTGTAAAAGCTTCATGAATATGAGCATCCGGAGTCACCTAGTGCAG	5690 fluorescence intensity (a.u.)
AGTGATAGATGATGCTAAGTCCCAGTTGGAAGCCGTATGCCGGAGTCACCTAGTGCAG	21300 fluorescence intensity (a.u.)
CTAATAATTAAGTCAATTTTACCATGCAAGTAATAAGGTTCGGAGTCACCTAGTGCAG	24600 fluorescence intensity (a.u.)
TATGTTTGGTAATTGGCTACGGGGAATTAGGAAAGACTTGCGGAGTCACCTAGTGCAG	14200 fluorescence intensity (a.u.)
TATACCCAATTAAATGGTACATCTAAACTGCATGCATGTACGGAGTCACCTAGTGCAG	3400 fluorescence intensity (a.u.)
ACCATATTAACCACATCAATTTGATTGGTTTCATATATAACGGAGTCACCTAGTGCAG	34100 fluorescence intensity (a.u.)
CACATCGCTAATTGCTGAAATTCCATTGTTGCGAGTACTACGGAGTCACCTAGTGCAG	13900 fluorescence intensity (a.u.)
AAGGTAATTGGATGTAAACTAGATGTGAAATATAATTCTTCGGAGTCACCTAGTGCAG	29400 fluorescence intensity (a.u.)
